For test [1], the target named is Myc-FBXW7-1–324 (WD40 domain-deleted mutant) (UniProt Q969H0). The test is described as follows: co-IP; lysates (300–400 µg) of cells expressing the tagged proteins (HEK293T where named); antibody 2 µg overnight at 4 °C, protein G Sepharose, washes in 20 mM Tris pH 8.0, 100 mM NaCl, 1 mM EDTA, 0.5% NP-40; Western blotting; Fig. 3d with MG132 10 µM, 4 h.
The next test has as its target cullin 4B (UniProt Q13620). The description is as above.
The target in test [2] is Myc-FBXW7-1–707 (full-length FBXW7) (UniProt Q969H0). The description is as above.
For test [3], the target named is Myc-FBXW7-1–278 (WD40/F-box domain-deleted mutant) (UniProt Q969H0). The test is described as above.
For the next test, the target named is T1, FBXO17 (UniProt Q96EF6).
T1 sequence: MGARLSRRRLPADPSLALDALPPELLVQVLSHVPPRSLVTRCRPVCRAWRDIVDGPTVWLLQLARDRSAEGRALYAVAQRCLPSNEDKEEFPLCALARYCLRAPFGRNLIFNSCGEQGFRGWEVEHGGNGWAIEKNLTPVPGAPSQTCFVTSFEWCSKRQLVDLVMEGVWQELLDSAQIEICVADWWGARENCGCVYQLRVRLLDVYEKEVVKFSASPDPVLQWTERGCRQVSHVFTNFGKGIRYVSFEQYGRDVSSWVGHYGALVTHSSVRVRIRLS
The description is as above.

Sequences of proteins named here, by UniProt entry; tags and fusion partners are left off. A change or cut given only in a name is not applied to a line headed by its entry. A line that says so, or that is headed by a name, gives the form on record, which may keep a tag or linker. Residues count along the entry.
UniProt Q969H0: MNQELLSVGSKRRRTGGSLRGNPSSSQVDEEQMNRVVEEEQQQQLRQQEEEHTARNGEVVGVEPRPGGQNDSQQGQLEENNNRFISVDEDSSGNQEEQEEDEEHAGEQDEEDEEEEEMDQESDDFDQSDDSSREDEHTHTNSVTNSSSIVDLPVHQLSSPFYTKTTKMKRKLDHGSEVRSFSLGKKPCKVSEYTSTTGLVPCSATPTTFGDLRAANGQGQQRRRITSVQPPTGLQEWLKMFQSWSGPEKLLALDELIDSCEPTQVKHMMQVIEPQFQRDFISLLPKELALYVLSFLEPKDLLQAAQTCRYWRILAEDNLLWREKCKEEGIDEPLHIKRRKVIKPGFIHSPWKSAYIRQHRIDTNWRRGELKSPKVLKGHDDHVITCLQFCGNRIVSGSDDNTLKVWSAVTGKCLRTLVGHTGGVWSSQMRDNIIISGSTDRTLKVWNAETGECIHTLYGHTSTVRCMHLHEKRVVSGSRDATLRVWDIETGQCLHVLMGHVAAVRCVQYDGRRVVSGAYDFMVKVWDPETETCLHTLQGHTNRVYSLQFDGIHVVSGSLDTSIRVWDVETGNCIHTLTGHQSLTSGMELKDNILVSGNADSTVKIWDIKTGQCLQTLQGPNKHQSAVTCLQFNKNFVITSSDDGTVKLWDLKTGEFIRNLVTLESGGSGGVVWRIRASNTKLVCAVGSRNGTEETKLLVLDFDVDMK
Myc-FBXW7-1–324 (WD40 domain-deleted mutant): residues 1-324 of Q969H0
Myc-FBXW7-1–278 (WD40/F-box domain-deleted mutant): residues 1-278 of Q969H0
UniProt Q9UKT5: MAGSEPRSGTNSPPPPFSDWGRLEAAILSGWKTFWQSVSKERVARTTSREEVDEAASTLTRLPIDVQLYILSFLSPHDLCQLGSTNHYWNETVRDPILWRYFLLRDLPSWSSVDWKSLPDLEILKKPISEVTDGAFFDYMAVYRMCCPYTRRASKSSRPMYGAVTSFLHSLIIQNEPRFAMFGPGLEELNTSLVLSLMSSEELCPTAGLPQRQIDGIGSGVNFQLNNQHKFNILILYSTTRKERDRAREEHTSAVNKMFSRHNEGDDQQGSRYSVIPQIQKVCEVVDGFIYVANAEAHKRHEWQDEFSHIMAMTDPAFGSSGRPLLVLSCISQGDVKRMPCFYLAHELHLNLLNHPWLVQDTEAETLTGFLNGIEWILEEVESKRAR
UniProt Q9Y297: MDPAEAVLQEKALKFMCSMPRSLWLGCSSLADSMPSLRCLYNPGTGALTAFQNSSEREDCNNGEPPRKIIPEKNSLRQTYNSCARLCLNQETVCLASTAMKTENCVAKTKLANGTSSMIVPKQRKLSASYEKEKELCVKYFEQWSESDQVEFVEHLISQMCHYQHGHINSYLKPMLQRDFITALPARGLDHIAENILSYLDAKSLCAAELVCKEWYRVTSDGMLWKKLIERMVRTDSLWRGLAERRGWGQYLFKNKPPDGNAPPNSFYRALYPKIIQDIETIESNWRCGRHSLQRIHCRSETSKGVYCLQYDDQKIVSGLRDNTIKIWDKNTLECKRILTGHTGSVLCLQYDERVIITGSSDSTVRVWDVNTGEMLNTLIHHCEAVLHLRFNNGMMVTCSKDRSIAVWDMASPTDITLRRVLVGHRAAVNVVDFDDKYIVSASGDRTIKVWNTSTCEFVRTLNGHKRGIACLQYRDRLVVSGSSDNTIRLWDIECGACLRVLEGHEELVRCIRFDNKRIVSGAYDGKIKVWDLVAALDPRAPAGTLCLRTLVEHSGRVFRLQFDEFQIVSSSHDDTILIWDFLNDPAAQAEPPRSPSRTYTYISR
UniProt Q9UKB1: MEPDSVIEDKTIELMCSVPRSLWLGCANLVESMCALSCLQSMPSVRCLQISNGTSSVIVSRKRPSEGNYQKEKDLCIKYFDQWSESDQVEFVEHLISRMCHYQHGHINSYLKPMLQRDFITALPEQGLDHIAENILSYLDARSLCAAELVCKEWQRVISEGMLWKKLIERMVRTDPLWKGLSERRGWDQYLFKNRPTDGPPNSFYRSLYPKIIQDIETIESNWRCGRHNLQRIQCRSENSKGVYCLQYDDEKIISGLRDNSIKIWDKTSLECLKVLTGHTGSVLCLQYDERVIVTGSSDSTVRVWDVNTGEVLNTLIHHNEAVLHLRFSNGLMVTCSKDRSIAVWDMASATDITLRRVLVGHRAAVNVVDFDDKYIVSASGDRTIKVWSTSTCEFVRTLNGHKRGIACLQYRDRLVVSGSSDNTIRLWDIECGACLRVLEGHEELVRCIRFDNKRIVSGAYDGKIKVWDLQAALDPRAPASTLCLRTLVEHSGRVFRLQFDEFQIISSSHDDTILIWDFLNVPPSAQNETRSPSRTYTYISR
UniProt Q969U6: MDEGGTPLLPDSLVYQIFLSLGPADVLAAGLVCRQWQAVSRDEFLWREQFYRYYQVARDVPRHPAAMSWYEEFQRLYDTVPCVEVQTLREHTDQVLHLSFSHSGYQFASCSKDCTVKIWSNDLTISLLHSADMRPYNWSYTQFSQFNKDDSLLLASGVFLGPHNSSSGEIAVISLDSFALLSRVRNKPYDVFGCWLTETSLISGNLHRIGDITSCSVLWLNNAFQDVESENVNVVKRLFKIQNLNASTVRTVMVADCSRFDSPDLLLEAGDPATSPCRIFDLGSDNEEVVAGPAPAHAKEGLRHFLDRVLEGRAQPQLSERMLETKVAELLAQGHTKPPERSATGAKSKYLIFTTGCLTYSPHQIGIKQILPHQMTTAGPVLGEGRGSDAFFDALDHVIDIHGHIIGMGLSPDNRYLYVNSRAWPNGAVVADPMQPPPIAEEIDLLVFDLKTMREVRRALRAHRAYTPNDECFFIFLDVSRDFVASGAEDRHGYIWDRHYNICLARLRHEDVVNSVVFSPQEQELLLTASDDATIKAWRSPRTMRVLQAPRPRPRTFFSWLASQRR
UniProt Q16659: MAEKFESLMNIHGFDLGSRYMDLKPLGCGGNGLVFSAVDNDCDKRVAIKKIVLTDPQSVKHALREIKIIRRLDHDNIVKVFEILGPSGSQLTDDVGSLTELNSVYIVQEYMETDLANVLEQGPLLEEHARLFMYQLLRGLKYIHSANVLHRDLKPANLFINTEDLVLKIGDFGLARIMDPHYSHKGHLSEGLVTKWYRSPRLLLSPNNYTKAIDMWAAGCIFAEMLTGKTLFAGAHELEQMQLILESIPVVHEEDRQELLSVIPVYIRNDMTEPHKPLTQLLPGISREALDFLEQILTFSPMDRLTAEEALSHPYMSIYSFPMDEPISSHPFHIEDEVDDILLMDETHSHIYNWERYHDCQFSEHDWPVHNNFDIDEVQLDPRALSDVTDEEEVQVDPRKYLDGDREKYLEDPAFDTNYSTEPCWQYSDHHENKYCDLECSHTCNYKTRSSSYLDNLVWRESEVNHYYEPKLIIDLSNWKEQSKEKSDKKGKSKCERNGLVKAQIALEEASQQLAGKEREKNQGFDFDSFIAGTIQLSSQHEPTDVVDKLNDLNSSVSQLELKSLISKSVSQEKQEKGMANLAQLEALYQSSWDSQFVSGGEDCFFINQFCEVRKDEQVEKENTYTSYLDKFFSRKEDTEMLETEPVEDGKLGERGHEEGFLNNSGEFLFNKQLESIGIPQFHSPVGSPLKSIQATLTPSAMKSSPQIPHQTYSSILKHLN
Myc-ERK3-FL-mtPDM1 (Q16659, form named): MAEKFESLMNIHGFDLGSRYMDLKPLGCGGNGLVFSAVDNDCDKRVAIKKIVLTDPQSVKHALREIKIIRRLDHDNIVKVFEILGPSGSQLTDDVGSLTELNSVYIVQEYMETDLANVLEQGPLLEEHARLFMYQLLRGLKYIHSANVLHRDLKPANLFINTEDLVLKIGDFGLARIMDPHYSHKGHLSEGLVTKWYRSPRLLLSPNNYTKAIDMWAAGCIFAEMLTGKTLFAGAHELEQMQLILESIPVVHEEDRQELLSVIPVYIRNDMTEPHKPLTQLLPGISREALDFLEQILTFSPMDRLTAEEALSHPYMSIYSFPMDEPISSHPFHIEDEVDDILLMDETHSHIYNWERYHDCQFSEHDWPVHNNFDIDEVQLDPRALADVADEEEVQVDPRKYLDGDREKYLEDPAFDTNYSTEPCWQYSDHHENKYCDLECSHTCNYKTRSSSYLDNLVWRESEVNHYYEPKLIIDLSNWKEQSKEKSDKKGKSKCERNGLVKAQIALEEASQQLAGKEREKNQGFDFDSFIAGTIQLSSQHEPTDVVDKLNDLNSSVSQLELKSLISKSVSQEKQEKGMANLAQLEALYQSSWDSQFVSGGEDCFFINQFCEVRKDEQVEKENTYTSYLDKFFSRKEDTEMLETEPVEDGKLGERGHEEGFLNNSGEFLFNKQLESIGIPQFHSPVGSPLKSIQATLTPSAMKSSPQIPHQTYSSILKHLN
Myc-ERK3-FL-mtPDM3 (Q16659, form named): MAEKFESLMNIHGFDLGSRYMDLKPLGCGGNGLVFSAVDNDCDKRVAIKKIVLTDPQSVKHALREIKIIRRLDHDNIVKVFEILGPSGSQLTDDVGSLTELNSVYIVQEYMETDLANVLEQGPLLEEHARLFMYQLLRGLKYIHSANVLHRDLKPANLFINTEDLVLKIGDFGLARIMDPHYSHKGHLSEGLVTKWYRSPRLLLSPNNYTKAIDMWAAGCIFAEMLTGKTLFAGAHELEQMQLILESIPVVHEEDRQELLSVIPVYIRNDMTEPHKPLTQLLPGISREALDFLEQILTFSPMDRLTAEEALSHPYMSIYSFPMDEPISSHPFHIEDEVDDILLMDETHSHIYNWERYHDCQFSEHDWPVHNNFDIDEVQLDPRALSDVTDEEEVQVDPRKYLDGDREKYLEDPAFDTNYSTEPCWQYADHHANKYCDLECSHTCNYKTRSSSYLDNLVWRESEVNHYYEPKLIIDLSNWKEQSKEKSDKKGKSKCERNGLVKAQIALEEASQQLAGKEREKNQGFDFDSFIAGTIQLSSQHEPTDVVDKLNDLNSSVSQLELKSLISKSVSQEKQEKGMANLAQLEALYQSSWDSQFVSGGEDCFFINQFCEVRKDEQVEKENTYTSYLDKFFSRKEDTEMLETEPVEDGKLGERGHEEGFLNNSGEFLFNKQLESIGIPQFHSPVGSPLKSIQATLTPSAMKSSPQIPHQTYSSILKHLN
Myc-ERK3-FL-mtPDM4 (Q16659, form named): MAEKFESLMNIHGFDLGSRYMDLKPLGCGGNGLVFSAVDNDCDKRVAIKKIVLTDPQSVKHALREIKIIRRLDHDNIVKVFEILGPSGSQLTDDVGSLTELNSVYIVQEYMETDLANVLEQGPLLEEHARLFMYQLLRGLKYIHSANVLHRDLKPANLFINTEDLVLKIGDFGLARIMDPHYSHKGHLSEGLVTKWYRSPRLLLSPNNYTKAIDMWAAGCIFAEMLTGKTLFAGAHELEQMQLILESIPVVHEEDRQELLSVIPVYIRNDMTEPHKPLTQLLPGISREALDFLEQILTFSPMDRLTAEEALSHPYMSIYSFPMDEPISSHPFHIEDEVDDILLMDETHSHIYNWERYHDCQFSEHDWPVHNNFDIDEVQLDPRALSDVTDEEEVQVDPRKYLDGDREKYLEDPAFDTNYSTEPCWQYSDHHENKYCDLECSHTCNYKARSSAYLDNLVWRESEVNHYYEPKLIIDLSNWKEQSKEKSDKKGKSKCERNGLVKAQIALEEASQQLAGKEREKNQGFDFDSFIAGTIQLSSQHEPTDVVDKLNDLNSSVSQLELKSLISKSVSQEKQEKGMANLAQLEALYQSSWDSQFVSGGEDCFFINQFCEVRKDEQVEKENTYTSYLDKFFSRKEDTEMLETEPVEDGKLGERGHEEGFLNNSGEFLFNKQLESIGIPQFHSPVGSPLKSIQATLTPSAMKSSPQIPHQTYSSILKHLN
Myc-ERK3-FL-mtPDM5 (Q16659, form named): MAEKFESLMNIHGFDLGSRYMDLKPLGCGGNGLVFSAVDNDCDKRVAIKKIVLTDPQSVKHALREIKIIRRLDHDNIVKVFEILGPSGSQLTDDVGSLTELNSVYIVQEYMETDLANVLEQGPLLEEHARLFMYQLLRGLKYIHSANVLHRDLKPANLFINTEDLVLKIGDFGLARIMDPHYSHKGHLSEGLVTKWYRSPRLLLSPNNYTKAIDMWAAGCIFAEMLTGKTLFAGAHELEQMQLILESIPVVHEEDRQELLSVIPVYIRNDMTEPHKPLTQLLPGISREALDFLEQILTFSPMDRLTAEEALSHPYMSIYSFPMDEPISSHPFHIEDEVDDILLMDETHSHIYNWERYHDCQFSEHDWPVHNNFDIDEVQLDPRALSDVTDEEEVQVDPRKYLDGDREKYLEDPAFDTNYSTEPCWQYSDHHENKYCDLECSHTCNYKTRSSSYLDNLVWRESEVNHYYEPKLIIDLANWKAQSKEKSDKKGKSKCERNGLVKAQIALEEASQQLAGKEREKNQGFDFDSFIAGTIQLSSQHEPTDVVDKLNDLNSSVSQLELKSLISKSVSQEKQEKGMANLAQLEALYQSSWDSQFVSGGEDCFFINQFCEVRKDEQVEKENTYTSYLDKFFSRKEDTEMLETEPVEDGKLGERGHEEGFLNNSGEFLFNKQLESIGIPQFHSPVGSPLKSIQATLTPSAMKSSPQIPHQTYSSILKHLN

Another test has as its target FBXO4 (UniProt Q9UKT5). Described as above.
The target of test [4] is FBXW7 (tag not stated; Fig. 1f, FBXW7-wt of Fig. 3d, Fig. 4g) (UniProt Q969H0). The description is as above.
For the next test, the target named is cullin 1 (UniProt Q13616). The description is as above.
The next test concerns the target T2, FBXO6 (UniProt Q9NRD1).
T2 sequence: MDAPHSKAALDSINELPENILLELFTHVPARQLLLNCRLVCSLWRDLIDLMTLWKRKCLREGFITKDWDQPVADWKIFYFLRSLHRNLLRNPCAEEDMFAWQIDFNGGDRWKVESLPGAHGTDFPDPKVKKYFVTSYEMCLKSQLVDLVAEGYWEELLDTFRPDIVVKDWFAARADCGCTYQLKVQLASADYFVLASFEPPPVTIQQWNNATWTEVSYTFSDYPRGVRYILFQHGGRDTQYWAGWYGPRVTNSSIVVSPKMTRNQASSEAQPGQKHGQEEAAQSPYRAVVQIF
The test is described as above.

The next test has as its target HA-FBXW7 (UniProt Q969H0). The description is as above.
In test [5] the target is Flag-FBXW7 (UniProt Q969H0). The description is as above.
Test [6] has as its target Flag-FBXW7 (UniProt Q969H0). Nature of the test: co-IP; ex vivo Flag-tag pulldown of Flag-tagged FBXW subfamily members; endogenous ERK3 detected by Western blotting.
In the next test the target is T3, FBXW2 (Flag-tagged) (UniProt Q9UKT8).
T3 sequence: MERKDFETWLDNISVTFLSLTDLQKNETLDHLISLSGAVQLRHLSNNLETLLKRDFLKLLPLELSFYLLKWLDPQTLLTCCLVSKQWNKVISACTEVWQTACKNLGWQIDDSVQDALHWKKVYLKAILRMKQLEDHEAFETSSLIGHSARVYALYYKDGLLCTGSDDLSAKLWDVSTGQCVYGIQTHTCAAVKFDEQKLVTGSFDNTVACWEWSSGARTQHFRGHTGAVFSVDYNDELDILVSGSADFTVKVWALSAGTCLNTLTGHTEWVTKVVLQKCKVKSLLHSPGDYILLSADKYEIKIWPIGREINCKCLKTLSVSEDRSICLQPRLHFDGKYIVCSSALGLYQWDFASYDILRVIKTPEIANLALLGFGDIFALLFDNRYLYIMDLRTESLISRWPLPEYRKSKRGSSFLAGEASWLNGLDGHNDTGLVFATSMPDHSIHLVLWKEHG
Described as above.

The target in another test is βTrCP1 (Flag-tagged) (UniProt Q9Y297). Described as above.
For the next test, the target named is T4, FBXW8 (Flag-tagged) (UniProt Q8N3Y1).
T4 sequence: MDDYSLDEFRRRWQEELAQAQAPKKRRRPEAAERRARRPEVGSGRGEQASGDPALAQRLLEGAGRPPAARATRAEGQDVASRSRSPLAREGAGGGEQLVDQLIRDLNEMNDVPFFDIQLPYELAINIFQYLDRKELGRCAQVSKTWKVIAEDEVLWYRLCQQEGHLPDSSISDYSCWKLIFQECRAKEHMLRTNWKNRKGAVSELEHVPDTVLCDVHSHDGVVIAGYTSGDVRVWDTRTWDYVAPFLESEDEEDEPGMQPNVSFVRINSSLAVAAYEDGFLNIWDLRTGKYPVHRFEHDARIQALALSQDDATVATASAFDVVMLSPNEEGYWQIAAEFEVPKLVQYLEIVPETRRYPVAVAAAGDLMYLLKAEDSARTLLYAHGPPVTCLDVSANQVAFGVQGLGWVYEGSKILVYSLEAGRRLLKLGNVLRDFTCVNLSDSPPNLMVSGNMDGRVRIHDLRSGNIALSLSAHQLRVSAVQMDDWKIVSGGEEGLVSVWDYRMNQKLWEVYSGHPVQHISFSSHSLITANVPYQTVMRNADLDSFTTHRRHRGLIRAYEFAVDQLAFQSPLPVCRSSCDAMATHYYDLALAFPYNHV
The description is as above.

For a further test, the target named is βTrCP2 (Flag-tagged) (UniProt Q9UKB1). The description is as above.
Another test addresses FBXW5 (Flag-tagged) (UniProt Q969U6). The description is as above.
The target of another test is T5, FBXW4 (Flag-tagged) (UniProt P57775).
T5 sequence: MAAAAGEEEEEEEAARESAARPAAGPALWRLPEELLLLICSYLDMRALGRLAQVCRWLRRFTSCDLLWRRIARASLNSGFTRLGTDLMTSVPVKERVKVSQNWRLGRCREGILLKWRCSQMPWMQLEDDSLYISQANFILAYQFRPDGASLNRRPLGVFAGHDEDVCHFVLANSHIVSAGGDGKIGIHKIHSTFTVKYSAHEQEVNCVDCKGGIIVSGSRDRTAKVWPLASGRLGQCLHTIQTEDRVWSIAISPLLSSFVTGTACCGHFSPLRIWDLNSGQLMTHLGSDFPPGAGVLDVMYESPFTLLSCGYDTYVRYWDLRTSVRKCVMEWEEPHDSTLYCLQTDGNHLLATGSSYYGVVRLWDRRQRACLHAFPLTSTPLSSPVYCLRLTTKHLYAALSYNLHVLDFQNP
The description is as above.

Results are given in words; binding and its absence hold for the method and conditions named. Binding seen in cells or lysates may run through a third protein. Some entries that bind do so weakly or less than the wild type. For some assays here: Sequences can lack the tags named with a protein.

Regarding “ERK3 (construct not stated; Figs. 1c, 1d, 1f, 3c) (from UniProt Q16659 1-721)”, the binding result in test [1] is “no binding”; with cullin 4B, “binds”; in test [2], “binds”; in [3], “no binding”; in the test with FBXO17, “binds”; with FBXO4 it was “binds”. The binding result (in test [4]; with cullin 1; with FBXO6) was “binds” each time.
For the substance Gal4-ERK3 (from UniProt Q16659 1-721), the binding entry in test [2] is “binds”.
Take “Myc-ERK3-1–340 (from UniProt Q16659 1-340) (domain or fragment)”: the binding entry in the test with HA-FBXW7 is reported as “no binding”.
Same read-out and setting: under “Myc-ERK3-1–363 (from UniProt Q16659 1-363) (domain or fragment)” stands “no binding”; under “Myc-ERK3-1–481 (from UniProt Q16659 1-481) (domain or fragment)”, “binds”; under “Myc-ERK3-1–721 (from UniProt Q16659 1-721)”, “binds”.
On the same count and under the same terms, as for “Myc-ERK3-FL-mtPDM1 (from UniProt Q16659 1-721)”, the entry is “binds”; as for “Myc-ERK3-FL-mtPDM3 (from UniProt Q16659 1-721)”, “binds”.
Consider “Myc-ERK3-FL-mtPDM4 (from UniProt Q16659 1-721)”, for which the binding entry in the test with HA-FBXW7 is “binds”.
Regarding “Myc-ERK3-FL-mtPDM5 (from UniProt Q16659 1-721)”, the binding entry with HA-FBXW7 is “binds”.
For “Myc-ERK3-dN481 (from UniProt Q16659 481-721) (domain or fragment)”, the binding result with Flag-FBXW7 [5] was “no binding”.
Regarding “endogenous ERK3 (from UniProt Q16659 1-721)”, the binding result is on record as “binds” with Flag-FBXW7 [6]; “no binding” with FBXW2 (Flag-tagged); “no binding” in the test with βTrCP1 (Flag-tagged); “no binding” with FBXW8 (Flag-tagged); “no binding” with βTrCP2 (Flag-tagged); “no binding” with FBXW5 (Flag-tagged). Further, in the test with FBXW4 (Flag-tagged), the binding entry is recorded as “no binding”.

Values taken from publication PMC8813941.
